Results published in the supplement of paper PMC4723716.
± gives the uncertainty stated by the source. The full ranking holds about 9,900 compounds; the median of “viability index relative to DMSO control” is about 1, and the lowest 2% start at about 0.85. The list shows a part of the results.

Each compound was assayed on Plasmodium falciparum NF54 stage V gametocytes (assay: viability index relative to DMSO control (fraction); higher = less gametocyte killing). Settings: 2.5 µM, library set: Broad Institute DOS, incubation time: 72 h.
Summary of the method: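 Viability index is the count of red-stained particles in a well divided by the plate mean of solvent-only wells. Particles of 20–70 µm2 were counted in one imaged field per well after one to two hours with 3 µl of 2.5 µM MitoTracker Red CMXRos and 0.13% saponin. Before staining, P. falciparum NF54 stage V gametocytes in serum-free medium (0.75% gametocytemia, 1.25% hematocrit, 10 µl, 1,536-well plates) were kept with compound at 2.5 µM for 72 hr at 37°C under low oxygen.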

Row | SMILES | viability index
1 | Cc1ccccc1S(=O)(=O)N1C[C@@H]2N[C@H](C1)[C@H]2c1ccc(/C=C/c2ccccc2)cc1 | 1 ± 0.048
2 | CO[C@@H]1CN(C)C(=O)c2cc(NC(=O)c3nc4ccccc4s3)ccc2OC[C@@H](C)NC[C@H]1C | 1.11 ± 0.067
3 | CC(C)C#Cc1ccc([C@H]2[C@H]3CN(C(=O)c4ccc5c(c4)OCO5)CC(=O)N3[C@H]2CO)cc1 | 0.988 ± 0.036
4 | COc1ccc2c3c([nH]c2c1)[C@H](CO)NC[C@]31CN(Cc2cc(F)ccc2F)C1 | 1.03 ± 0.011
5 | N#C[C@H]1[C@@H](c2ccc(-c3cccnc3)cc2)[C@@H](CO)N1C(=O)C1CCOCC1 | 1.07 ± 0.031
6 | CCCC(=O)N1C[C@]2(CN(C2)C(=O)NC(C)C)c2c([nH]c3cc(OC)ccc23)[C@@H]1CO | 1.05 ± 0.018
7 | O=C(C[C@@H]1CC[C@H]2NC[C@H](O)COC[C@@H]2O1)Nc1nccs1 | 1.04 ± 0.068
8 | N#C[C@H]1N[C@H](CO)[C@H]1c1ccc(-c2cccc(F)c2)cc1 | 1.1 ± 0.075
9 | C[C@@H]1CCCCO[C@H](CN(C)C(=O)CCC(F)(F)F)[C@@H](C)CN([C@H](C)CO)C(=O)c2cc(NC(=O)C3CCCCC3)ccc2O1 | 1.08 ± 0.12
10 | COc1ccc2c3c([C@@H](CO)N(Cc4nccs4)C[C@]33CCN(CC3)C(=O)CN(C)C)n(C)c2c1 | 0.905 ± 0.039
11 | COc1ccccc1NC(=O)N1C[C@@H]2[C@H](c3ccccc31)[C@H](CO)N2C(=O)C1CCCC1 | 1.01 ± 0.096
12 | CO[C@@H]1CC[C@H]2CCOc3c(C#N)cccc3C(=O)N(C)C[C@@H](OC)[C@H](C)C(=O)N(C)C[C@@H]1O2 | 1.047 ± 0.0065
13 | C[C@H]1CN([C@@H](C)CO)C(=O)c2cccc(NS(=O)(=O)c3cn(C)cn3)c2O[C@H]1CN(C)Cc1ccc(Oc2ccccc2)cc1 | 1.09 ± 0.081
14 | CO[C@@H]1CN(C)C(=O)c2cc(NC(C)=O)ccc2OC[C@@H](C)N(C(=O)Cc2ccccn2)C[C@H]1C | 1.04 ± 0.12
15 | CN1C(=O)c2cc(NC(=O)Nc3ccccc3Cl)ccc2OC[C@@H]2O[C@H](CC(=O)NCCCN3CCOCC3)CC[C@@H]21 | 1.11 ± 0.013
16 | O=C(C1CCC1)N1CCCCN2[C@@H](CO)[C@H](c3ccc(-c4ccncc4)cc3)[C@@H]2C1 | 1.03 ± 0.079
17 | C/C=C/c1ccc([C@@H]2[C@H](CO)N[C@H]2CN(CC(C)C)C(=O)c2ccccn2)cc1 | 1.01 ± 0.019
18 | COc1cccc(S(=O)(=O)N2C[C@H](O)COC[C@H]3O[C@@H](CC(=O)NCCCN4CCOCC4)CC[C@@H]32)c1 | 1.02 ± 0.053
19 | C[C@H](NC(=O)C[C@H]1CC[C@H]2[C@@H](COC[C@@H](O)CN2Cc2ccc(C(F)(F)F)cc2)O1)c1ccccc1 | 1.02 ± 0.06
20 | COCC(=O)N1[C@@H](CO)[C@@H](c2ccccc2)C12CN(Cc1cc(F)ccc1F)C2 | 0.967 ± 0.026
21 | CCS(=O)(=O)N1C[C@@]2(C1)CN(Cc1ccccc1F)[C@@H](CO)c1[nH]c3cc(OC)ccc3c21 | 0.939 ± 0.055
22 | CCCN1[C@@H]2c3ccc(-c4ccccc4)c(=O)n3C[C@H]1[C@H](CO)[C@H]2C(=O)NCC | 1.064 ± 0.0077
23 | O=C(NCC[C@@H]1CC[C@@H](NC(=O)c2ccncc2)[C@H](CO)O1)Nc1ccc(Cl)cc1 | 1.05 ± 0.026
24 | C[C@@H]1CN([C@H](C)CO)S(=O)(=O)c2ccc(C#Cc3cccc(F)c3)cc2O[C@H]1CN(C)S(=O)(=O)c1cn(C)cn1 | 0.803 ± 0.052

Row | SMILES | viability index
25 | CCS(=O)(=O)N1CC2(C1)[C@H](c1ccccc1)[C@H](CO)N2Cc1ccc(F)cc1 | 1.08 ± 0.061
26 | COc1cccc(NC(=O)N2CC(=O)N3[C@@H](CO)[C@H](c4ccc(C#CCC5CCCC5)cc4)[C@@H]3C2)c1 | 1.03 ± 0.058
27 | COc1ccc(C#Cc2ccc([C@H]3[C@H]4CN(C(=O)c5ccc(F)cc5)CC(=O)N4[C@H]3CO)cc2)cc1 | 1 ± 0.082
28 | C/C=C/c1cccc(-c2nc(C(=O)NCCN3CCCCC3)cc3c2[C@H](CCO)N([S@@](=O)C(C)(C)C)C3)c1 | 1.04 ± 0.051
29 | CNC[C@@H]1Oc2ccc(NS(=O)(=O)c3ccc(OC)cc3)cc2C(=O)N([C@@H](C)CO)C[C@H]1C | 0.994 ± 0.019
30 | C[C@@H]1CCCCO[C@@H](CN(C)C(=O)c2ccncc2)[C@H](C)CN([C@@H](C)CO)C(=O)c2cc(NC(=O)CCC(F)(F)F)ccc2O1 | 1.066 ± 0.0069
31 | CN(C)C(=O)c1ccc(-c2cccc(-c3nc(C(=O)NC4CCCCC4)cc4c3[C@H](CCO)N([S@@](=O)C(C)(C)C)C4)c2)cc1 | 1.01 ± 0.046
32 | CCCC(=O)Nc1ccc2c(c1)OC[C@@H](C)N(C(=O)c1cccnc1)C[C@H](C)[C@@H](OC)CN(C)C2=O | 1.09 ± 0.05
33 | CCCN(C)C[C@@H]1Oc2cc(/C=C/c3ccccc3)ccc2S(=O)(=O)N([C@@H](C)CO)C[C@H]1C | 1.102 ± 0.0059
34 | CO[C@@H]1CN(C)C(=O)c2cc(NS(C)(=O)=O)ccc2OC[C@H](C)N(C(=O)C2CCOCC2)C[C@H]1C | 1.16 ± 0.02
35 | COc1ccc(NC(=O)N(C)C[C@@H]2Oc3c(NC(=O)CCCCCC(=O)Nc4ccccc4N)cccc3C(=O)N([C@@H](C)CO)C[C@H]2C)cc1 | 1.07 ± 0.091
36 | O=C(Cc1ccncc1)NCC[C@H]1CC[C@H](NS(=O)(=O)c2ccccc2Cl)[C@H](CO)O1 | 1.09 ± 0.031
37 | O=C(C[C@H]1CC[C@H]2[C@@H](COC[C@H](O)CN2Cc2nccs2)O1)N1CCC(Cc2ccccc2)CC1 | 1.03 ± 0.078
38 | COc1ccc2c3c([C@H](CO)NC[C@]33CN(Cc4ccc(F)cc4)C3)n(C)c2c1 | 0.841 ± 0.014
39 | O=C([C@@H]1[C@@H](CO)[C@@H]2Cn3c(cccc3=O)[C@H]1N2)N1CCc2ccccc2C1 | 1.06 ± 0.056
40 | COc1ccccc1C#Cc1ccc2c(c1)[C@@H]1NCC[C@@H]1[C@H](CO)N2 | 1.01 ± 0.016
41 | C[C@H]1CN([C@@H](C)CO)C(=O)c2cc(NC(=O)Nc3ccccc3)ccc2O[C@H]1CN(C)Cc1ccccc1 | 1.092 ± 0.0056
42 | O=C(C[C@H]1CC[C@@H]2[C@H](COC[C@H](O)CN2C(=O)c2cc(Cl)cc(Cl)c2)O1)N1CCc2ccccc2C1 | 0.939 ± 0.025
43 | O=C1CNC[C@H]2[C@@H](c3ccc(C4=CCCC4)cc3)[C@H](CO)N12 | 1.06 ± 0.14
44 | O=C(c1cccnc1)N1CC(=O)N2[C@H](CO)[C@@H](c3ccc(-c4ccccc4F)cc3)[C@H]2C1 | 0.983 ± 0.011
45 | COc1ccc(-c2ccc([C@@H]3[C@@H](CO)N4C(=O)CN(C(=O)Cc5ccccn5)C[C@H]34)cc2)cc1 | 1.02 ± 0.012
46 | C[C@@H]1CCCCO[C@@H](CN(C)S(=O)(=O)c2cn(C)cn2)[C@H](C)CN([C@H](C)CO)C(=O)c2cc(NC(=O)Nc3cccc4ccccc34)ccc2O1 | 1.01 ± 0.077
47 | CN(C)CC(=O)N1[C@H](C#N)[C@@H](c2ccc(-c3cccc(C(=O)N(C)C)c3)cc2)[C@@H]1CO | 1.14 ± 0.038
48 | CCC(=O)N1[C@H](C#N)[C@H](c2ccccc2-c2ccccc2)[C@@H]1CO | 1.16 ± 0.13

Row | SMILES | viability index
49 | CN1C[C@@H](O)COC[C@H]2O[C@H](CC(=O)NC3CCCC3)CC[C@@H]21 | 1.05 ± 0.064
50 | C[C@H](CO)N1C[C@H](C)[C@@H](CN(C)C(=O)Nc2ccccc2)Oc2ccc(NS(=O)(=O)c3ccc(F)cc3)cc2C1=O | 0.973 ± 0.037
51 | CO[C@@H]1CN(C)C(=O)c2cc(NS(=O)(=O)c3cccc(Cl)c3)ccc2OC[C@H](C)NC[C@@H]1C | 0.978 ± 0.07
52 | N[C@@H]1CC[C@@H](CCn2cc(C3(O)CCCC3)nn2)O[C@H]1CO | 0.964 ± 0.091
53 | CN(C)CC(=O)N1[C@H](CO)[C@H](c2ccccc2-c2ccccc2F)[C@@H]1C#N | 1.19 ± 0.06
54 | CC(C)CC#Cc1ccc([C@H]2[C@@H](CO)N3C(=O)CN(S(=O)(=O)c4cccc(F)c4)C[C@@H]23)cc1 | 0.964 ± 0.022
55 | CCCNC(=O)N1[C@H](C#N)[C@@H](c2ccccc2C2=CCCCC2)[C@@H]1CO | 1 ± 0.056
56 | Cc1ccccc1-c1ccc([C@@H]2[C@@H]3CN(S(=O)(=O)Cc4ccccc4)C[C@H]2N3)cc1 | 0.854 ± 0.034
57 | CCNC(=O)c1cc2c(c(-c3cccc(-c4cncnc4)c3)n1)[C@@H](CCO)N(C(C)=O)C2 | 1.085 ± 0.0084
58 | COc1cccc(CNC(=O)C[C@@H]2CC[C@@H]3[C@H](COc4ccc(NS(=O)(=O)c5ccccc5F)cc4C(=O)N3C)O2)c1 | 0.97 ± 0.047
59 | O=C(Nc1ccccc1F)N1[C@@H]2CNC[C@H]1[C@@H]2c1ccc(-c2ccncc2)cc1 | 1.17 ± 0.014
60 | COc1ccc2c3c([nH]c2c1)[C@@H](CO)N(Cc1cccc(F)c1)C[C@]31CCN(CC1)C(C)=O | 0.952 ± 0.083
61 | CCS(=O)(=O)NCC[C@@H]1CC[C@H](NC(=O)Nc2cc(Cl)cc(Cl)c2)[C@@H](CO)O1 | 1.2 ± 0.082
62 | CCCN(C)C[C@H]1OCCCC[C@@H](C)Oc2ccc(NC(=O)CCCN(C)C)cc2C(=O)N([C@@H](C)CO)C[C@@H]1C | 1.17 ± 0.058
63 | COc1ccccc1S(=O)(=O)N[C@@H]1C=C[C@@H](CC(=O)N2CCOCC2)O[C@@H]1CO | 1.11 ± 0.068
64 | CN1C(=O)c2cc(NC(=O)Cc3cccs3)ccc2OC[C@H]2O[C@@H](CC(=O)NCCCN3CCOCC3)CC[C@H]21 | 1.06 ± 0.15
65 | Cc1ccc(S(=O)(=O)Nc2ccc3c(c2)C(=O)N([C@H](C)CO)C[C@@H](C)[C@@H](CN(C)S(=O)(=O)c2cccs2)OCCCC[C@H](C)O3)cc1 | 1.08 ± 0.093
66 | C[C@@H]1CN([C@H](C)CO)C(=O)c2cccc(NS(=O)(=O)c3cn(C)cn3)c2O[C@@H]1CN(C)Cc1ccc(Oc2ccccc2)cc1 | 1 ± 0.11
67 | COc1ccccc1-c1ccccc1[C@H]1[C@H](C#N)N(C(=O)CN(C)C)[C@H]1CO | 1.01 ± 0.1
68 | COc1ccc(NC(=O)N2C[C@@]3(C2)CN([C@H](CO)c2[nH]c4cc(OC)ccc4c32)C(C)=O)cc1 | 0.924 ± 0.068
69 | COCC(=O)N1CC(=O)N2[C@@H](CO)[C@@H](c3ccc(-c4ccccc4F)cc3)[C@@H]2C1 | 1.01 ± 0.045
70 | CN1C(=O)c2cc(NS(=O)(=O)c3cccc(F)c3)ccc2OC[C@@H]2O[C@@H](CC(=O)N3CCc4ccccc4C3)CC[C@H]21 | 0.993 ± 0.055
71 | C[C@@H]1CN([C@@H](C)CO)C(=O)c2cc(NC(=O)CCC(F)(F)F)ccc2O[C@@H](C)CCCCO[C@@H]1CN(C)C(=O)c1ccncc1 | 1.03 ± 0.061
